# The full ranking holds about 33,000 sequences; the median of “E-score (-0.5 to 0.5)” is about -0.054, and the highest 2% start at about 0.39. This is one part of the list.
# Target: Ylr278c (UniProt Q05854)
# Assay: PBM E-score (8-mer binding enrichment) (E-score (-0.5 to 0.5)); higher = stronger / more preferred TF binding; most listed sequences are background and not binding sites
# Details: protein concentration: 200 nM; construct: GST-DNA-binding domain
# Procedure, shortened: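 Using PURExpress in vitro transcription/translation, GST-tagged yeast transcription factors were made in full-length or DNA-binding-domain form. These were applied at about 100-200 nM to double-stranded universal all-10-mer Agilent arrays, and bound protein was detected with fluorescent anti-GST. Scans were normalised with masliner before the Universal PBM Analysis Suite assigned E-scores to ungapped eight-base words pooled with their reverse complements.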
row,Sequence,PBM E-score
1,CTCAAATA,-0.122
2,GGTAAGAC,-0.122
3,ACAAGGCC,-0.0782
4,AGCTGGAT,-0.0941
5,CTTATACA,-0.0911
6,CTGATTTA,0.0293
7,ACCAATCC,0.0813
8,AAACTGGT,-0.105
9,CCTTGAAC,-0.189
10,GACACTGA,-0.0883
11,GAGTGTAC,-0.00985
12,GTAGCACA,-0.137
13,AGAGACAT,-0.0847
14,AGTGACGA,-0.136
15,CACGTCCG,0.244
16,AGAGTTTA,0.049
17,GGGGTTAA,0.0589
18,CGGACGGA,0.397
19,AACCGGAT,0.367
20,ATGTTCCG,0.429
21,GATCATCC,0.0203
22,ACAATTAG,-0.148
23,CCCGCACC,0.188
24,CGGATTGC,0.285
25,CACTTCAC,-0.0647

row,Sequence,PBM E-score
1,AGCGCAAC,0.139
2,ATGTTCTG,-0.11
3,CCATTCCG,0.332
4,TCAAACAA,-0.0998
5,CTTTGAAC,-0.111
6,AAGTCAAG,-0.255
7,CGGTCGAA,0.168
8,GCATTAGC,-0.0544
9,GGACCTCC,0.251
10,ATTCTCCC,0.0768
11,CAGTCTGA,-0.199
12,GGGTACCA,-0.244
13,ATCGCCTA,0.084
14,ACAGAGTA,-0.178
15,GAGAAATA,0.155
16,AATAAGGC,-0.111
17,ATCCAGAA,-0.122
18,ATTAAGAA,-0.0604
19,CAGTCAGA,-0.206
20,CCGGGGGC,0.271
21,ACAGAGCT,-0.221
22,CCGTATAA,0.196
23,ACGTTTTA,-0.206
24,GACTATAC,-0.134
25,TACCTTAA,-0.147

row,Sequence,PBM E-score
1,ACAAATAG,0.0001
2,CACCCCAA,-0.0388
3,CCCGTTTA,0.14
4,AAATCGTT,-0.154
5,CCCTGCCA,-0.125
6,CCAGGCAG,-0.161
7,GGTATTGA,-0.0384
8,GCCTTTAC,-0.0652
9,AATACACT,-0.261
10,GGTCTATA,-0.134
11,GTTGGGCA,-0.127
12,CTTGCCAC,-0.186
13,AGTGCTTA,-0.229
14,AGTGGGCC,-0.288
15,GTGTAAAA,-0.0333
16,CTCCTATC,-0.0262
17,ATGCGGGA,0.254
18,ATTTTAAA,0.0686
19,AAGTAGGT,-0.099
20,ACTGCAAG,-0.168
21,CTGCCAGC,-0.214
22,CCAGAGTA,0.00877
23,GGAGAGTA,0.243
24,CACTTATA,-0.097
25,TCTTAGAA,0.0122

row,Sequence,PBM E-score
1,ACCATCGC,-0.073
2,ACTTTTGA,0.0107
3,ACAATACG,0.077
4,CGACTTCA,-0.0229
5,ACACACTG,-0.267
6,AGGATTGG,-0.176
7,CCCAACCG,-0.0967
8,CACAAGTA,-0.0997
9,AACCGCTC,-0.0374
10,AGAGATCG,-0.0659
11,AGAAGCAA,-0.0422
12,AATCCACT,-0.0727
13,GCCTCGCA,-0.158
14,CATGTAAG,-0.0988
15,CTAAGGCC,0.00484
16,CCGAGGAA,0.315
17,ACGTGTCT,-0.216
18,ACGGTAGA,-0.0217
19,AGACAACG,0.0292
20,CGGATGAG,0.194
21,AATTATAC,0.251
22,AAAAGAGA,-0.223
23,CCTACACA,0.0303
24,ACCCATCG,0.113
25,TCAGCTGA,-0.145

row,Sequence,PBM E-score
1,ACTTTGCG,-0.0125
2,ATGAGCAG,-0.208
3,ACCATCCG,0.148
4,ATGCCGGG,0.336
5,GTTGCTTA,-0.107
6,AACTTTGC,-0.0101
7,CGAGTTTA,0.0666
8,AACATCCG,0.385
9,GCGTGTTA,-0.258
10,CCACTTTA,-0.0297
11,AAACCGAA,0.0446
12,CCAAATTA,-0.141
13,CCCTAACG,-0.138
14,CACTAAGG,-0.0893
15,ACACATAT,-0.177
16,CTGAGGTA,0.00191
17,CAATGACC,-0.206
18,GCGTGATA,-0.0659
19,AAAGTGCC,0.021
20,CATTGTTC,0.0678
21,GCTATTGA,-0.0423
22,AATAGCCG,0.232
23,ACTTCATA,-0.116
24,ACAGTGCA,0.017
25,CACGGATA,0.196

row,Sequence,PBM E-score
1,CGGACGAA,0.332
2,ACGGGCCC,0.142
3,GGACTTGA,0.179
4,ATTCTTGG,0.117
5,ATTAAACC,0.0693
6,AGACCCCT,-0.271
7,ATCAATGA,-0.0268
8,GGCCCACC,0.0651
9,ACGTACTA,-0.212
10,CGATTCTC,-0.00605
11,GAGGGGAA,0.0991
12,GACCCGCA,-0.00573
13,CCTACTCC,0.14
14,GCGCTCCA,0.0139
15,ATCCTCCG,0.431
16,GACAATAA,0.03
17,CTAGTAAC,-0.167
18,CGACACTC,0.0756
19,ATCGTCGC,-0.165
20,CAGCGCGG,0.213
21,CACCGGTG,0.306
22,CGACGGAG,0.421
23,ATTGATGG,-0.069
24,CCTACGAA,-0.0211
25,GAAGGTCA,-0.119

row,Sequence,PBM E-score
1,CCGTTCAC,-0.0424
2,ACCTCCTC,-0.0564
3,CGCATCGC,-0.0943
4,GAATCTCC,0.368
5,CCCTTCTC,-0.0903
6,CTTGTGTA,-0.127
7,CCGAAAGA,0.338
8,AATATAGG,0.0354
9,TCGAACAA,-0.0943
10,CGTGGGAC,-0.0297
11,CTGGCTCA,-0.136
12,ACATCTGG,0.0256
13,GAAGGAGC,-0.314
14,CTCCACGA,-0.0757
15,GAATTGAC,0.0975
16,ATGCCTTG,-0.0703
17,CCAGGGCG,0.0486
18,AAAGAGCG,0.0481
19,AACAAGCC,-0.121
20,GCCCCACA,-0.139
21,GCGGGTCC,0.177
22,GCTATTCC,0.173
23,CGTCCTTA,-0.206
24,ATCTATAG,-0.109
25,CTGATCCA,-0.127

row,Sequence,PBM E-score
1,ACATCAAG,0.00648
2,CGCGCTCC,0.347
3,GAGTGCTA,-0.00265
4,AACTCCGG,0.497
5,AGTTTGTC,-0.0538
6,ATCGCTAC,-0.0939
7,ACGGTATG,-0.1
8,AGTTACCG,0.187
9,TGAACCAA,-0.22
10,AAATCAAA,-0.0357
11,CATATTCG,0.151
12,GCGTATAA,0.072
13,GTAGACAA,-0.0795
14,AGAGGAAT,-0.2
15,CAGTTCTC,0.123
16,GATGCGTA,-0.0332
17,CAAGCTTG,-0.0834
18,ATGCCCTG,-0.196
19,CTATCTCA,-0.0411
20,AGACTTTC,-0.0647
21,AAACCCCC,-0.0651
22,ACATAATC,0.0327
23,GAGTTCCC,0.0904
24,AGAGTATA,-0.163
25,ATGAGCCG,-0.00632

row,Sequence,PBM E-score
1,ACCTTCTG,-0.0277
2,ACAGCGCC,0.215
3,AAGACCTA,-0.0495
4,CTCGGGTA,-0.0227
5,ACAGGTCA,-0.109
6,CGCCCGTC,0.264
7,AATACGGG,0.116
8,GTGTACTA,-0.171
9,GTCGGAAA,0.424
10,ATTCTACG,0.0201
11,GCGCCGCC,0.247
12,GTAAGGTA,0.0123
13,AAAAAGCG,0.172
14,ACCGACAA,0.199
15,GGGGCTCA,-0.0512
16,CACTTACA,-0.188
17,CCCTATCC,-0.0154
18,AAAGAAAT,-0.1
19,GCTGTCGA,0.0714

# — the supplement of paper PMC3334620
